Measurements published in US20170266269A1, “METHODS OF IDENTIFYING ANTIGENS FOR VACCINES” (UNIVERSITY OF WASHINGTON THROUGH ITS CENTER FOR …, priority 2014, published 2017).

Experiments:
[1] = tested on: human peripheral blood mononuclear cells (PBMC); experiment: IL-10 ELISPOT of human PBMC with epitope peptides; type: cell-based; conditions: CD105 and HIF1α peptides
Excerpt: (§1) A plurality of immunological assays may be used with the methods or processes described herein to test at least one peptides of putative epitopes or nucleic acids encoding peptides of putative epitopes to determine if the peptide of the putative epitope elicits an immune response, often the sub-type of the immune response may be determined, often the immunologic assay may be an ELISPOT assay, an ELISA assay, a multiplex assay or the like. For example, a suitable immunologic assay may include performing an ELISPOT assay using cells derived from donors. […] The amount of at least one cytokine production in cells following administration of the peptides of putative epitopes may be determined by the ELISPOT assay. […]
(§2) […] peptides, predicted to bind promiscuously to human MHCII, were selected using web-based algorithms according to the methods described herein. Peripheral blood mononuclear cells (PBMC) from 20 female breast cancer patients were cryopreserved and evaluated by ELISPOT for antigen specific IFNγ or IL-10 secretion, according to our published methods. […] Data is reported as the mean number of spots for each experimental antigen minus the mean number of spots detected in no antigen control wells (corrected spots per well: CSPW). […]

[2] = tested on: human peripheral blood mononuclear cells (PBMC); experiment: IFNγ ELISPOT of human PBMC with epitope peptides; type: cell-based; conditions: CD105 and HIF1α peptides
Excerpt: as §1, §2

With “LKALDGFVMVLTDDGDMIYISDNVN [HIF1α p 93-117]” the IL-10 response [1] was “no or low” and the IFNγ response [2] was “strong”.
